Data as given in paper PMC6919601, “Identification of Plasmodium dipeptidyl aminopeptidase allosteric inhibitors by high throughput screening” (PLoS ONE, 2019).
Among all 110,000 compounds or so, about 230 (0.21%) showed an effect of 50% or more. This is one part of the list.

The molecules below were run against DPAP1 (Plasmodium falciparum, UniProt Q8IIJ9) (assay: primary screen, percent inhibition; read by cleavage of a fluorogenic dipeptide substrate; higher = more effect of the substance).
Design: species or system P. falciparum D10 trophozoite lysates; single well
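Further: 30 min substrate incubation versus DMSO and 10 µM JCP410 controls.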

DPAP1, sequence (Q8IIJ9 whole entry, looked up): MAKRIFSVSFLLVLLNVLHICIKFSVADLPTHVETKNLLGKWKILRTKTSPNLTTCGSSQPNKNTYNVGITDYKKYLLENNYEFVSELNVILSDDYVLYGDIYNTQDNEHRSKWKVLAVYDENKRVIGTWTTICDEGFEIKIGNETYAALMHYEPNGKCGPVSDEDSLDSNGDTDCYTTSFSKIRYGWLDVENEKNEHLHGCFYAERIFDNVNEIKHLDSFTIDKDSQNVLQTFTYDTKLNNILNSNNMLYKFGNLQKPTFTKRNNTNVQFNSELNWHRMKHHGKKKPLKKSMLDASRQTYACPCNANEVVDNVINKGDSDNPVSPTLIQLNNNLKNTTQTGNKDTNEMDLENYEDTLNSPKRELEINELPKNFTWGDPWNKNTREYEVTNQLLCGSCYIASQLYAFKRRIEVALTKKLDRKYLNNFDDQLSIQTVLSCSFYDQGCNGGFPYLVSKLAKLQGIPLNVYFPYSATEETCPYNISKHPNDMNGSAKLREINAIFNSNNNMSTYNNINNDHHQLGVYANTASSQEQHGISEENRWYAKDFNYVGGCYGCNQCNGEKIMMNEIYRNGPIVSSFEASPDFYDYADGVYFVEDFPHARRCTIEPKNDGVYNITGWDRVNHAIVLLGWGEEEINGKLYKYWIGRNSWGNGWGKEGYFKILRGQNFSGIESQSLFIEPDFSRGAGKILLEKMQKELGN

| Compound | % Inhibition @ 10 uM [%] |
| --- | --- |
| N#C/C(=C/c1ccc(-c2ccc(Br)cc2)o1)C(=O)O | -1.29 |
| OCCN1CCN(CCCC(c2ccc(F)cc2)c2ccc(F)cc2)CC1 | 1.19 |
| N#CCNC(=O)[C@H](Cc1c(F)cccc1F)NC(=O)c1cc(-c2ccccc2Cl)no1 | -5.2 |
| CC(C(=O)NCc1ccccc1Cl)n1ccc2cc(S(=O)(=O)N3CCCC3)ccc21 (stereo not shown) | -4.77 |
| COCCn1c(CCC(=O)NCc2ccccc2Cl)nc2cccnc21 | -0.72 |
| CCn1nc(-c2ccc(C(F)(F)F)cc2)nc2c(=O)n(C)c(=O)nc1-2 | -6.74 |
| CCN(CC)CCOC(=O)/C=C/c1ccccc1 | 4.54 |
| CC(=O)N1Cc2ccccc2-c2ccccc2C1 | -3.27 |
| CN1CCN(Cc2cc(Br)cs2)CC1 | 4.57 |
| CCC(C)NCc1c(C(=O)O)n(Cc2ccc(OC)cc2)c2ccccc12 (stereo not shown) | -4.07 |
| CC1CCN(C(=O)/C=C/c2cccc([N+](=O)[O-])c2)CC1 | -8.37 |
| CCc1nnc(NC(=O)c2cc(=O)c3cc(Cl)ccc3o2)s1 | 1.9 |
| O=P(CCNCc1cccnc1)(c1ccccc1)c1ccccc1 | -3.41 |
| CCOC(=O)N1CCN(S(=O)(=O)c2c[nH]c(C(=O)OC)c2)CC1 | -1.11 |
| CCOc1ccc2nc(NC(=O)c3cccn(OCc4ccccc4)c3=O)sc2c1 | -3.44 |
| COc1ccccc1CNC(=O)c1cc(S(=O)(=O)N2CCCCC2)c[nH]1 | 1.45 |
| O=c1c(-c2ccccc2)coc2c(CN3CCCCCC3)c(O)ccc12 | 1.26 |
| Cc1ccccc1-n1c(SCc2ccccc2)nnc1-c1cccnc1 | 0.238 |
| COCCn1c(=N)c(C(=O)NCC2CCCO2)cc2c(=O)n3cc(C)ccc3nc21 (stereo not shown) | 94.3 |
| CCOC(=O)c1c(NC(=O)c2nn(C)c(=O)c3ccccc23)sc2c1CCCC2 | -4.42 |
| CCOc1c(Cl)cc(C(=O)NC(C)(C)C)cc1Cl | -0.123 |
| CSc1nc(O)c(C(c2ccccc2)c2ccccc2)c(O)n1 | -2.34 |
| CC(Nc1cnn(C23CC4CC(CC(C4)C2)C3)c(=O)c1Cl)c1ccccc1 (stereo not shown) | 0.166 |
| COc1ccc(-c2nnc(-c3ccccc3)o2)cc1 | 1.26 |
| COc1ccccc1-n1nc(C)c(-c2ccccc2)c1N | -2.19 |

| Compound | % Inhibition @ 10 uM [%] |
| --- | --- |
| Cc1cc(C)nc(N2CCN(c3ncnc4sc5c(c34)CCCC5)CC2)n1 | -10.5 |
| COc1cccc(CN2CCCC(O)C2)c1 (stereo not shown) | 8.45 |
| CCCCCc1ccc(-c2ccc(-c3noc(-c4ccc(CCCC)cc4)n3)cc2)cc1 | -0.693 |
| CNCc1cccc(OC)c1OCc1ccc(F)cc1 | -3.48 |
| C(=C\c1ccccc1)/CN1CCN(Cc2cccnc2)CC1 | -2.56 |
| Cc1cc(=O)n2nc(N3CCC(C(=O)NCCCSC4CCCCC4)CC3)sc2n1 | 1.38 |
| Cc1ccccc1CNCc1c(C(=O)O)n(Cc2ccccc2C)c2ccccc12 | 0.201 |
| CC1CCc2c(sc(NC(=O)CCC(=O)O)c2C(=O)Nc2cccc3ccccc23)C1 (stereo not shown) | 5.53 |
| CC(CNC(=O)Cn1ncn2c(cc3cc(F)ccc32)c1=O)c1ccccc1 (stereo not shown) | -3.47 |
| CC(=O)c1c(O)c2cccc3c2n(c1=O)C(C)C3 (stereo not shown) | 2.5 |
| CCOC(=O)c1cnc2c(C#N)cnn2c1-c1ccccc1 | 4.74 |
| CN1CCN(Cc2ccsc2)CC1 | -7.5 |
| CCOC(=O)c1cnc2cc(-c3ccccc3)nn2c1C | -3.63 |
| COCCN1C(=O)C(O)=C(C(=O)c2ccc(C)cc2)C1c1cccc(Oc2ccccc2)c1 (stereo not shown) | 0.163 |
| O=S(=O)(NC1CCCCC1)c1ccc(-n2cnnn2)cc1 | -2.84 |
| O=C1C2C3C=CC(C3)C2C(=O)N1CCC(=O)N(C1CCCCC1)C1CCCCC1 (stereo not shown) | 4.01 |
| CSCCOC(=O)C1=C(C)NC(=O)CC1c1ccccc1C(F)(F)F (stereo not shown) | -0.396 |
| O=C(c1nc(-c2ccccc2)n(-c2ccc(Cl)cc2)n1)N1CCOCC1 | 1.89 |
| O=C(O)c1ccccc1C(=O)Nc1ccc(S(=O)(=O)NC2CCCCC2)cc1 | 1.29 |
| FC(F)(F)c1ccc(NCc2ccccc2)nc1 | -5.48 |
| CCc1ccc(-c2cn3ccccc3n2)cc1 | 1.27 |
| Cc1cc2n(c(=O)c1C#N)CC(c1ccccc1)=C2 | 2.38 |
| Cc1cc(C)n(-c2ccc(Cl)cc2)c(=O)c1C(=O)O | 1.27 |
| Cc1ccc(CNC(=O)c2ccc(CS(=O)c3ccccc3Cl)o2)cc1 (stereo not shown) | 4.65 |
| CN1CCC(N(C)C(=O)/C(=C/c2cccs2)NC(=O)c2ccccc2)CC1 | 0.751 |

| Compound | % Inhibition @ 10 uM [%] |
| --- | --- |
| COc1ccc(-c2cc(C(=O)Nc3cccc4ccccc34)c3ccccc3n2)cc1 | 3.05 |
| O=C(NC1CCN(Cc2ccccc2)CC1)C1CCN(S(=O)(=O)c2cccs2)CC1 | -2.65 |
| O=C(NCc1ccccc1)c1ccc(COCC(F)(F)F)o1 | -3.36 |
| CCOC(=O)C1=CN(C(C)C)C=C(C(=O)OCC)C1c1ccc(OCc2ccccc2)cc1 | 3.45 |
| CC(C)NC(=O)c1ccc2snnc2c1 | -1.74 |
| COC(=O)C1CCCN1Cc1ccc(OC)c(C)c1C (stereo not shown) | 1.57 |
| Cc1cccn2cc(CCNC(=O)c3cccc(Cl)c3)nc12 | -3.51 |
| O=C(CSc1c2c(nc3ccc(Cl)cc13)CCCC2)N1CCC2(CC1)OCCO2 | -6.89 |
| C#CC(C)(CC)NC(=O)c1cc2nc(C3CC3)cc(C(F)(F)F)n2n1 (stereo not shown) | 2.57 |
| Cc1ccc(C(=O)Nc2ccc(Cl)cc2)c(C)n1 | 0.826 |
| CCOC(=O)C1=C(C)NC(=O)C1(NC(=O)c1cccnc1)C(F)(F)F (stereo not shown) | -1.75 |
| CC(=O)Nc1c(C(=O)N2CCCCC2)cnn1-c1ccccc1Cl | -0.891 |
| CCn1cc(C(=O)Nc2ccccc2C(C)C)cn1 | 6.1 |
| O=C(Nc1ccc2c(c1)S(=O)(=O)c1cc(NC(=O)c3cccs3)ccc1-2)c1cccs1 | -3.26 |
| N#Cc1cc2c(nc1SCC(=O)Nc1ccc(S(=O)(=O)Nc3nccs3)cc1)CCCC2 | -0.968 |
| CCC(=O)Nc1ncc(-c2ccccc2)s1 | -3.72 |
| COc1ccccc1CN1CCN(c2ccccn2)CC1 | -0.127 |
| Cc1c(C)n(C)c2ccc(C(=O)NCCc3cccs3)cc12 | 1.95 |
| CCc1ccc2oc(C(=O)NCc3ccc(OC)cc3)cc(=O)c2c1 | -5.08 |
| COc1ccccc1N1CCN(C(=O)CN2C(=O)c3ccccc3S2(=O)=O)CC1 | -3.04 |
| COc1cc(C(=O)N2CCN(Cc3cccc(Oc4ccccc4)c3)CC2)cc(OC)c1OC | 5.41 |
| COc1cccc(N(CC(=O)Nc2ccc(C)cc2C)S(=O)(=O)c2ccccc2)c1 | 0.324 |
| O=C(CCc1nnc2n(Cc3ccccc3Cl)c(=O)c3ccccc3n12)NC1CCCCC1 | 2.6 |
| C=CCc1cccc2cc(C(=O)N3CCN(C)CC3)c(=O)oc12 | -4.98 |
| CN(C)S(=O)(=O)c1ccc(N2CCN(CCO)CC2)nc1 | -1.51 |

| Compound | % Inhibition @ 10 uM [%] |
| --- | --- |
| COc1cc2c(cc1OC)CN(C(=O)COc1ccc(Cl)cc1Cl)CC2 | -2.85 |
| COc1ccccc1CN1C(=O)c2ccccc2C1C(=O)NC1CCC(C)CC1 (stereo not shown) | 5.89 |
| COc1ccc(-c2noc(N(C)CC(=O)Nc3cccc(C)n3)n2)cc1 | 2.76 |
| O=c1c(CN2CCN(c3ccccc3F)CC2)coc2ccccc12 | -4.61 |
| COc1ccc(OC)c(NC(=O)c2cccs2)c1 | 2.22 |
| Cc1ccsc1CCNC(=O)CCc1c(C)nc2ncnn2c1O | -1.3 |
| CCn1cc(Cl)c(C(=O)NCc2cc3cc(Cl)ccc3[nH]2)n1 | -0.68 |
| CCN(CC)c1ccc2nnc(CCC(=O)NCc3ccco3)n2n1 | -5.85 |
| Clc1ccccc1Cn1nnc2c(N3CCCC3)ncnc21 | -2.19 |
| Cc1ccc(S(=O)(=O)N(CC(=O)N2CCN(C)CC2)c2ccc(C)c(C)c2)cc1 | -5.57 |
| COc1cccc2nc3ccccc3c(O)c12 | -2.15 |
| COc1ccc(N(CC(=O)Nc2ccccc2C)S(=O)(=O)c2ccc(C)cc2)c(OC)c1 | -10.8 |
| O=C(Nc1cc(Cl)ccc1O)c1cc2nc(C(F)F)cc(C(F)F)n2n1 | -0.116 |
| Cc1ccccc1-c1nc(CN2CCC(C(=O)N3CCN(c4ccccn4)CC3)CC2)c(C)o1 | -2.85 |
| CC1CCC(NC(=O)Cn2ncc3c4ccccc4n(Cc4ccccc4)c3c2=O)CC1 (stereo not shown) | -3.35 |
| COc1ccc(Br)cc1CNC(=O)CN1C(=O)CSc2nc(C)cc(C)c21 | 2.65 |
| O=C(O)c1cnc2ccc(S(=O)(=O)N3CC4CC(C3)c3cccc(=O)n3C4)cc2c1O (stereo not shown) | -3.21 |
| NC(=O)c1c(NC(=O)C2CCCN(C(=O)Cc3ccccc3F)C2)sc2c1CCCC2 (stereo not shown) | 5.43 |
| CC(C)C[C@H](NC(=O)N1CCN(c2cccc(Cl)c2)CC1)C(=O)NCC#N | -6.98 |
| COc1cc(C2C3=C(CC(C)(C)CC3=O)OC3=C2C(=O)CC(C)(C)C3)cc(Cl)c1O | -3.72 |
| CCN(CC)CCN1C(=O)C(O)=C(C(=O)c2ccc(F)cc2)C1c1cccc(Br)c1 (stereo not shown) | -1.06 |
| CCc1ccc(CNC(=O)C(C)n2ccc3cc(S(=O)(=O)N4CCCC4)ccc32)cc1 (stereo not shown) | 4.81 |
| CCOc1ccc(C(=O)C2=C(O)C(=O)N(CC3CCCO3)C2c2ccc(Br)cc2)cc1 (stereo not shown) | -2.46 |
| O=C(Nc1nc(COc2ccccc2)cs1)c1ccccc1F | -1.65 |
| Oc1cc(-c2ccccc2)nn1-c1nc2ccccc2[nH]1 | 2.24 |
